Measured values reported in the supplement of paper PMC4967469.
A lower IC50 marks a more sensitive line; fits outside the tested doses are given as limits. The AUC spans the tested range (256-fold, ending at the top dose) of the same fit; it is 1 without any effect and falls as sensitivity rises. For part of these data: Any top dose called inferred comes from the curve model; the source does not state it. For part of these data: Where an entry number is given, a second screen of the drug exists; the two often differ.

Key:
Assay in all cases: Viability of human cancer cell lines after 72 h of drug (GDSC screen)
[1] = compound: C[C@@H](Oc1cc(-c2cnn(C3CCNCC3)c2)cnc1N)c1c(Cl)ccc(F)c1Cl [Crizotinib]; details: top dose 2 µM
Method: (§1)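 Human cancer cell lines in 384-well plates, medium with 10% serum, drug for 72 h over a 256-fold dose range (nine 2-fold or five 4-fold steps up to the top dose). Adherent lines were fixed and stained with the nucleic acid dye Syto60, suspension lines read with resazurin; signal relative to control wells, capped at 0 and 100%. One two-parameter sigmoid per drug and line, fitted in a mixed model over all curves with the slope shared within a line.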

[2] = compound: NC(=O)c1ncn([C@@H]2O[C@H](CO)[C@@H](O)[C@H]2O)c1N [AICAR]; details: top dose 2000 µM; top dose inferred
Method: as §1

[3] = compound: O=c1[nH]c2ccccc2n1C1CCN(Cc2ccc(-c3[nH]c4cc5ncnc5cc4nc3-c3ccccc3)cc2)CC1 [AKT inhibitor VIII]; details: top dose inferred
Method: as §1

[4] = top dose 2.56 µM, screen: GDSC drug entry 171
[5] = top dose 10.24 µM, screen: GDSC drug entry 228

Cell Line | AUC [1] | IC50 [1] [µM] | AUC [2] | IC50 [2] [µM] | AUC [3, 4] | IC50 [3, 4] [µM] | AUC [3, 5] | IC50 [3, 5] [µM]
697 (lymphoblastic leukaemia, suspension) | 0.92 | > 2 | 0.714 | 435 | 0.952 | > 2.56 | 0.372 | 0.307
A3-KAW (B-cell lymphoma, suspension) | 0.973 | > 2 | 0.642 | 283 | 0.985 | > 2.56 | 0.836 | 4.93
A101D (melanoma, adherent) | 0.959 | > 2 | 0.638 | 329 | 0.947 | > 2.56 | 0.973 | > 10.2
A388 (skin, adherent) | 0.943 | > 2 | 0.902 | > 2000 | 0.895 | > 2.56 | 0.849 | 9.54
A498 (kidney, adherent) | 0.898 | > 2 | 0.926 | > 2000 | 0.753 | 1.27 | 0.958 | > 10.2
ALL-PO (lymphoblastic leukaemia, suspension) | 0.872 | > 2 | 0.617 | 267 | 0.949 | > 2.56 | 0.457 | 0.486
ALL-SIL (T-cell leukaemia, suspension) | 0.668 | 0.341 | 0.679 | 364 | 0.94 | > 2.56 | 0.426 | 0.414
ATN-1 (T-cell lymphoblastic leukaemia, suspension) | 0.92 | > 2 | 0.751 | 622 | 0.983 | > 2.56 | 0.604 | 1.21
BB30-HNC (head and neck, adherent) | 0.97 | > 2 | 0.756 | 669 | 0.858 | 2.04 | 0.876 | 9.85
BC-1 (B-cell lymphoma, suspension) | 0.959 | > 2 | 0.881 | 1560 | 0.941 | > 2.56 | 0.817 | 4.67
BV-173 (chronic myeloid leukaemia, suspension) | 0.845 | 1.2 | 0.578 | 198 | 0.973 | > 2.56 | 0.7 | 2.15
C2BBe1 (large intestine, adherent) | 0.98 | > 2 | 0.731 | 630 | 0.944 | > 2.56 | 0.946 | > 10.2
CAS-1 (glioma, adherent) | 0.97 | > 2 | 0.964 | > 2000 | 0.96 | > 2.56 | 0.94 | > 10.2
CMK (acute myeloid leukaemia, suspension) | 0.9 | 1.87 | 0.879 | 1510 | 0.975 | > 2.56 | 0.766 | 3.22
COR-L88 (small cell lung carcinoma, adherent) | 0.98 | > 2 | 0.908 | > 2000 | 0.981 | > 2.56 | 0.923 | > 10.2
COR-L279 (small cell lung carcinoma, suspension) | 0.99 | > 2 | 0.924 | > 2000 | 0.952 | > 2.56 | 0.865 | 7.48
CTV-1 (acute myeloid leukaemia, suspension) | 0.735 | 0.496 | 0.732 | 486 | 0.962 | > 2.56 | 0.592 | 1.08
D-283MED (medulloblastoma, adherent) | 0.982 | > 2 | 0.922 | > 2000 | 0.991 | > 2.56 | 0.958 | > 10.2
DMS-114 (small cell lung carcinoma, adherent) | 0.982 | > 2 | 0.854 | 1960 | 0.985 | > 2.56 | 0.944 | > 10.2
EM-2 (chronic myeloid leukaemia, suspension) | 0.721 | 0.58 | 0.551 | 175 | 0.972 | > 2.56 | 0.756 | 3.93
ES4 (Ewing sarcoma, adherent) | 0.953 | > 2 | 0.852 | 1920 | 0.936 | > 2.56 | 0.693 | 2.44
ES8 (Ewing sarcoma, adherent) | 0.891 | > 2 | 0.919 | > 2000 | 0.985 | > 2.56 | 0.76 | 3.36
EW-1 (Ewing sarcoma, semi-adherent) | 0.938 | > 2 | 0.885 | 1890 | 0.953 | > 2.56 | 0.507 | 0.669
EW-16 (Ewing sarcoma, adherent) | 0.915 | > 2 | 0.964 | > 2000 | 0.893 | > 2.56 | 0.835 | 7.14

Cell Line | AUC [1] | IC50 [1] [µM] | AUC [2] | IC50 [2] [µM] | AUC [3, 4] | IC50 [3, 4] [µM] | AUC [3, 5] | IC50 [3, 5] [µM]
HCE-4 (oesophagus, adherent) | 0.99 | > 2 |  |  | 0.943 | > 2.56 | 0.954 | > 10.2
KALS-1 (glioma, adherent) | 0.956 | > 2 |  |  | 0.928 | > 2.56 | 0.91 | > 10.2
KP-N-RT-BM-1 (neuroblastoma, semi-adherent) | 0.802 | 1.36 |  |  |  |  |  | 
NK-92MI (lymphoid neoplasm, suspension) | 0.953 | > 2 |  |  | 0.987 | > 2.56 | 0.829 | 5.79
SCC-3 (B-cell lymphoma, suspension) | 0.643 | 0.278 |  |  | 0.997 | > 2.56 | 0.912 | 7.3
SCC-15 (head and neck, adherent) | 0.98 | > 2 |  |  | 0.976 | > 2.56 | 0.911 | > 10.2
SIG-M5 (acute myeloid leukaemia, suspension) | 0.98 | > 2 |  |  | 0.953 | > 2.56 | 0.53 | 0.759
SKM-1 (haematopoietic neoplasm, suspension) | 0.982 | > 2 |  |  |  |  |  | 
TC-71 (Ewing sarcoma, adherent) | 0.992 | > 2 |  |  | 0.992 | > 2.56 | 0.867 | 6.76
TE-10 (oesophagus, adherent) | 0.959 | > 2 |  |  | 0.926 | > 2.56 | 0.924 | > 10.2
TE-441-T (rhabdomyosarcoma, adherent) | 0.973 | > 2 |  |  | 0.985 | > 2.56 | 0.965 | > 10.2
TOV-112D (ovary, adherent) |  |  | 0.983 | > 2000 | 0.909 | > 2.56 | 0.682 | 2.07
TT2609-C02 (thyroid, adherent) |  |  | 0.827 | 1340 | 0.867 | > 2.56 | 0.938 | > 10.2
TT (thyroid, adherent) |  |  | 0.861 | > 2000 | 0.848 | > 2.56 | 0.983 | > 10.2
TUR (B-cell lymphoma, suspension) |  |  | 0.735 | 550 | 0.978 | > 2.56 | 0.767 | 3.52
TYK-nu (ovary, adherent) |  |  | 0.937 | > 2000 | 0.948 | > 2.56 | 0.853 | 8.88
U251 (glioma, adherent) |  |  | 0.895 | > 2000 | 0.95 | > 2.56 | 0.924 | > 10.2
U-2-OS (osteosarcoma, adherent) |  |  | 0.841 | 1570 | 0.974 | > 2.56 | 0.939 | > 10.2
U-87-MG (glioma, adherent) |  |  | 0.917 | > 2000 | 0.98 | > 2.56 | 0.926 | > 10.2
U-118-MG (glioma, adherent) |  |  | 0.796 | 1100 | 0.927 | > 2.56 | 0.986 | > 10.2
U-698-M (B-cell leukaemia, suspension) |  |  | 0.722 | 534 | 0.968 | > 2.56 | 0.884 | > 10.2
UACC-62 (melanoma, adherent) |  |  | 0.864 | 1710 | 0.936 | > 2.56 | 0.97 | > 10.2
UACC-257 (melanoma, adherent) |  |  | 0.964 | > 2000 | 0.965 | > 2.56 | 0.914 | > 10.2
UACC-893 (breast, adherent) |  |  | 0.965 | > 2000 | 0.867 | > 2.56 | 0.664 | 2.14

Cell Line | AUC [1] | IC50 [1] [µM] | AUC [2] | IC50 [2] [µM] | AUC [3, 4] | IC50 [3, 4] [µM] | AUC [3, 5] | IC50 [3, 5] [µM]
UM-UC-3 (bladder, adherent) |  |  | 0.914 | > 2000 | 0.975 | > 2.56 | 0.9 | > 10.2
UMC-11 (lung carcinoid, adherent) |  |  | 0.885 | 1780 | 0.991 | > 2.56 | 0.896 | > 10.2
UWB1.289 (ovary, adherent) |  |  | 0.918 | > 2000 |  |  | 0.938 | > 10.2
VAL (B-cell lymphoma, suspension) |  |  | 0.873 | 1940 | 0.96 | > 2.56 | 0.813 | 5.57
VMRC-MELG (melanoma, adherent) |  |  | 0.971 | > 2000 | 0.969 | > 2.56 | 0.988 | > 10.2
VMRC-RCW (kidney, adherent) |  |  | 0.983 | > 2000 | 0.976 | > 2.56 | 0.918 | > 10.2
VMRC-RCZ (kidney, adherent) |  |  | 0.91 | > 2000 | 0.835 | 2.09 | 0.804 | 6.14
WIL2-NS (lymphoid neoplasm, suspension) |  |  | 0.954 | > 2000 | 0.981 | > 2.56 | 0.607 | 1.19
WM35 (melanoma, adherent) |  |  | 0.651 | 328 | 0.954 | > 2.56 | 0.871 | 9.74
WM278 (melanoma, adherent) |  |  | 0.939 | > 2000 | 0.984 | > 2.56 | 0.919 | > 10.2
WM793B (melanoma, adherent) |  |  | 0.874 | > 2000 | 0.933 | > 2.56 | 0.878 | > 10.2
WM1552C (melanoma, adherent) |  |  | 0.622 | 271 | 0.907 | > 2.56 | 0.806 | 5.24
WM-115 (melanoma, adherent) |  |  | 0.883 | > 2000 | 0.978 | > 2.56 | 0.802 | 6.44
WSU-DLCL2 (B-cell lymphoma, suspension) |  |  | 0.934 | > 2000 | 0.993 | > 2.56 | 0.837 | 5.27
WSU-NHL (lymphoid neoplasm, suspension) |  |  | 0.822 | 989 | 0.977 | > 2.56 | 0.93 | > 10.2
YAPC (pancreas, adherent) |  |  | 0.949 | > 2000 | 0.97 | > 2.56 | 0.949 | > 10.2
YH-13 (glioma, adherent) |  |  | 0.961 | > 2000 |  |  | 0.892 | > 10.2
YKG-1 (glioma, adherent) |  |  | 0.746 | 642 | 0.833 | 1.69 | 0.927 | > 10.2
YT (lymphoid neoplasm, suspension) |  |  | 0.988 | > 2000 | 0.95 | > 2.56 | 0.658 | 1.63
huH-1 (liver, adherent) |  |  | 0.857 | > 2000 | 0.972 | > 2.56 | 0.984 | > 10.2
no-10 (glioma, adherent) |  |  | 0.921 | > 2000 | 0.971 | > 2.56 | 0.955 | > 10.2
no-11 (glioma, adherent) |  |  | 0.934 | > 2000 | 0.939 | > 2.56 | 0.918 | > 10.2
